{
  "source": "PubChem BioAssay (NCI)",
  "key": {"[1]": {"experiment": "NCI Yeast Anticancer Drug Screen. Data for the rad50 strain (AID 155);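 further: 0% = growth of vehicle-only cultures of the same strain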", "settings": "S. cerevisiae rad50 strain growth inhibition; at 50.0 µM; stronger effect = higher value"}, "[2]": {"experiment": "NCI Yeast Anticancer Drug Screen. Data for the mec2-1 strain (AID 157)", "settings": "S. cerevisiae mec2-1 strain, at 50.0 µM, stronger effect = higher value"}, "[3]": {"experiment": "NCI Yeast Anticancer Drug Screen. Data for the cln2 rad14 strain (AID 165);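 further: 0% = growth equal to vehicle treated cultures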", "settings": "S. cerevisiae cln2 rad14 strain, at 50.0 µM, stronger effect = higher value"}},
  "note": "The source holds several records for some structures; these can differ, active in one and inactive in another. No stated cut-off is given here; in the data, active means growth inhibition above about 70%; inactive means the rest. For part of its entries the source gives two or more results. The list is limited to them. An entry can have further records. The values listed for one entry repeat one measurement (runs, samples, wells, individuals or studies).",
  "data": [
    {"smiles": "C[C@H]1CCC/C=C/[C@@H]2C[C@H](O)C[C@H]2[C@H](O)/C=C/C(=O)O1", "values": [
      {"measurement": "growth inhibition", "setting": "[1]", "result": "active: 90%, 89.5%, 87.8% and inactive: 5.9% [separate samples]"},
      {"measurement": "growth inhibition", "setting": "[2]", "result": "active: 91.2%, 90.4%, 91.4% and inactive: -9.9% [separate samples]"},
      {"measurement": "growth inhibition", "setting": "[3]", "result": "active: 89.5%, 88.8%, 88% and inactive: 9.65% [separate samples]"}
    ]}
  ]
}
